Reference: article PMC4336329 (PLoS ONE, 2015)
The campaign covered roughly 310,000 compounds. About 14,000 (4.5%) showed an effect of 50% or more. The effect is printed as a negative number. The list shows a part of the results.

Each compound was assayed against human ether-à-go-go-related gene (hERG) potassium channel (human, UniProt Q12809) (assay: primary screen, population patch clamp on CHO cells stably expressing hERG).
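Also: peak tail current of the secondary pulse compared with the same well before compound.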

human ether-à-go-go-related gene (hERG) potassium channel, sequence (Q12809 whole entry, looked up): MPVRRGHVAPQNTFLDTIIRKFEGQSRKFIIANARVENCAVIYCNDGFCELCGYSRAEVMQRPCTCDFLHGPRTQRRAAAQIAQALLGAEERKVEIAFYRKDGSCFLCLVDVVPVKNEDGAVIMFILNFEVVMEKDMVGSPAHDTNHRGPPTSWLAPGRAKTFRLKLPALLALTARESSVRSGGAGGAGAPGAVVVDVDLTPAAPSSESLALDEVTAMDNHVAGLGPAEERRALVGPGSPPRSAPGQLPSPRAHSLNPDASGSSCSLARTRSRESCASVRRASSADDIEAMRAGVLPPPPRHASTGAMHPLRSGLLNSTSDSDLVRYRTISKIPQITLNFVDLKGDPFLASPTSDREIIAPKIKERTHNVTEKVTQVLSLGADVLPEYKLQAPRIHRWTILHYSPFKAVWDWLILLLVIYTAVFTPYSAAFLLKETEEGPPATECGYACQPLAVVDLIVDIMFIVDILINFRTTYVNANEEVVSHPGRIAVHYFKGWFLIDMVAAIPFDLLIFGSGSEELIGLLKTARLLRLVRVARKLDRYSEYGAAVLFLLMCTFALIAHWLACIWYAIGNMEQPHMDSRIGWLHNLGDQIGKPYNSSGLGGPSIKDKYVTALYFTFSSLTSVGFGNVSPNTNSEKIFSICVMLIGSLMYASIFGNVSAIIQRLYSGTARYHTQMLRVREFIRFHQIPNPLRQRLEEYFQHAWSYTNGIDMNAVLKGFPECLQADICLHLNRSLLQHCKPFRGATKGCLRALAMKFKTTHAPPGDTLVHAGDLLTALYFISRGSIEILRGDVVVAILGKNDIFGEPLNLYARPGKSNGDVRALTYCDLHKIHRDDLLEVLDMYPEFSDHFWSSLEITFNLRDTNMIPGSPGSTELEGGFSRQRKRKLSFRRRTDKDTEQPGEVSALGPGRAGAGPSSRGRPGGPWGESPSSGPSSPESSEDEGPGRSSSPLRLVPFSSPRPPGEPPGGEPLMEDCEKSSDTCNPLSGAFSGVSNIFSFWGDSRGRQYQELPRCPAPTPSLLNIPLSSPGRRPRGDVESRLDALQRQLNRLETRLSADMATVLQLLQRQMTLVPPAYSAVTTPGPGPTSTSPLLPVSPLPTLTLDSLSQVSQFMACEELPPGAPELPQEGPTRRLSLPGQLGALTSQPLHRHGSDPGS

Row | Structure (SMILES) | hERG current change (%, negative = inhibition) at 10uM [%]
1 | COc1cccc(C(=O)Nc2cccc3ccccc23)c1 | 16.8
2 | COc1cccc(CNc2nc3nc(C)c(Cl)c(C)n3n2)c1 | -57.9
3 | CC(C)C1C(c2ccccc2)NC(c2ccccc2)CC1(O)c1ccc(F)cc1.Cl (stereo not shown) | 6.25
4 | CC1Cc2ccccc2N1C(=O)CN1C(=O)NC(C)(c2ccc3c(c2)OCCO3)C1=O (stereo not shown) | 1.12
5 | COc1ccc(S(=O)(=O)N2CCCOC2CNC(=O)C(=O)NC2CCCC2)cc1 (stereo not shown) | 4.51
6 | COc1ccc(N2CCN(C(=O)CSc3nc(C)cs3)CC2)cc1 | -1.29
7 | COC(=O)c1nccnc1C(=O)Nc1ccccc1N1CCOCC1 | 9.61
8 | COc1ccccc1N(CC(=O)NCC1CCCO1)C(=O)CNS(=O)(=O)c1ccccc1 (stereo not shown) | -0.369
9 | O=C(c1cccs1)N1CC=C(c2ccccc2)CC1 | -14.5
10 | CC(=O)Nc1cc(OC(=O)c2ccco2)cc(OC(=O)c2ccco2)c1 | -15.1
11 | Cc1ccc2c(CN3CCCCC3C)cc(=O)oc2c1.Cl (stereo not shown) | -41.3
12 | COc1ccc(C(=O)/C=C/c2cccc(OCc3ccccc3)c2)cc1CSCC(=O)O | 7.09
13 | CS(=O)(=O)N1CCN(C(=S)NCc2ccc(F)cc2)CC1 | 15.8
14 | Cl.c1ccc(Cn2nnnc2C(c2cccs2)N2CCc3ccccc3C2)cc1 (stereo not shown) | 0.489
15 | COC(=O)c1cccc(COC(=O)c2ccccc2NC(=O)c2ccco2)c1 | 9.74
16 | CCCNC(C)(C)COC(=O)c1ccccc1.Cl | 7.55
17 | Cc1ncsc1C(=O)NCc1ccc(N2CCCC2=O)cc1 | -1.49
18 | O=C(NNC(=O)c1ccccc1O)c1cc2ccccc2o1 | 2.41
19 | CCn1c(=NC(=O)CS(=O)(=O)c2ccc(C)cc2)sc2cccc(OC)c21 | -0.869
20 | CCOc1ncccc1C(=O)NCC(c1ccccc1)N(C)C (stereo not shown) | -22.4
21 | O=[N+]([O-])c1cc([N+](=O)[O-])c(Oc2c(F)cccc2F)cc1NN1CCCCC1 | 4.44
22 | COc1cc2c(cc1OC)CN(C(=O)CN1CCN(S(=O)(=O)c3ccc(C)c(C)c3)CC1)CC2 | -40.9

Row | Structure (SMILES) | hERG current change (%, negative = inhibition) at 10uM [%]
23 | COc1ccc(C2C(C#N)=C(C)NC3=C2C(=O)c2ccccc23)cc1 (stereo not shown) | 6.49
24 | O=C(Nn1cnnc1)c1ccncc1 | -9.28
25 | Cc1ccc(N=N/C(=C\O)C(=O)c2ccc(Cl)cc2)cc1 | 14.1
26 | CCc1cc(C(=O)Cc2nc3ccccc3[nH]2)c(O)cc1O | 8.34
27 | CN(C)S(=O)(=O)c1ccc(NC(=O)c2ccncc2)cc1 | 10.5
28 | COc1ccc(C(NC(C)=O)c2cc(Cl)c3cccnc3c2O)cc1OC (stereo not shown) | 8.49
29 | NS(=O)(=O)c1ccc(CCNC(=O)c2ccccc2-c2ccccc2)cc1 | 0.242
30 | Cc1ccccc1/C=C\c1nc2ccccc2c(=O)[nH]1 | 10.5
31 | C=CCN1CC(C)/C(=N\O)CC1C (stereo not shown) | 9.96
32 | CC(=O)Nc1ccc(S(=O)(=O)N/N=C/c2ccc(C)o2)cc1 | 10.2
33 | Cc1nc2scc(-c3cccs3)c2c(=O)n1CC(=O)O | 5.83
34 | COCCn1cnc2c1c(=O)n(Cc1c(F)cccc1Cl)c(=O)n2Cc1ccccc1 | -7.35
35 | COC(=O)CNC(=O)c1c(C)cc(=O)oc1C | 8.37
36 | COC(=O)CN(c1ccccc1F)S(=O)(=O)c1ccc(C)cc1 | 1.82
37 | COC(=O)c1ccccc1NC(=S)N1CCN(C2CCCCC2)CC1 | -22.4
38 | CCN(CC)CCN(C(=O)c1ccc(S(=O)(=O)N2CCCC2)cc1)c1nc2cc(C)cc(C)c2s1.Cl | -44.1
39 | Cc1ccc(N/C(N)=N/c2nc3c(c(=O)[nH]2)CCCC3)c(C)c1 | -1.9
40 | CC1CCCN(c2ccc(C(=O)NCc3ccco3)cc2[N+](=O)[O-])C1 (stereo not shown) | -44.4
41 | Cc1nc2c(C)cccn2c1C(=O)c1ccccc1.Cl | -0.644
42 | O=c1c2cc(N3CCOCC3)ccc2[nH]c(=S)n1CCN1CCCC1 | -6.02
43 | CC1(C)CC(=O)C(=Cc2cn(-c3ccccc3)nc2-c2ccccc2)C(=O)C1 | -24.1
44 | Cc1ccc(C)c(NC(=O)c2ccc(S(=O)(=O)C(F)F)cc2)c1 | -4.53

Row | Structure (SMILES) | hERG current change (%, negative = inhibition) at 10uM [%]
45 | O=c1[nH]c2ccccc2n1C1CCCCC1 | -5.49
46 | O=c1cc(CO)[nH]cc1OCc1ccccc1 | 19.7
47 | O=C(Nc1ccc(S(=O)(=O)N2CCN(c3ccccc3)CC2)cc1)c1cccs1 | 8.53
48 | CC(C)OC(=O)CC(=O)c1sc2nc3c(cc2c1N)CN(C)CC3 | -0.997
49 | Cc1ccc2c(CC(=O)OCn3nnc4ccccc4c3=O)coc2c1 | 23.2
50 | Cc1ccc(-c2csc(/C(C#N)=C/Nc3ccccc3SC(F)(F)F)n2)c(C)c1 | 19.7
51 | CSc1nc(=S)n(-c2cc(C)ccc2C)c(C)c1C(C)=O | 15.1
52 | COc1ccc(C2c3c(ncn(CCCO)c3=N)Oc3ccc4ccccc4c32)cc1OC (stereo not shown) | -28.8
53 | Cc1c(Br)c([N+](=O)[O-])nn1CC(=O)NCCc1ccc(Cl)cc1 | -17.9
54 | O=[N+]([O-])/C=C1/NCCN1Cc1ccc(Cl)nc1 | -1.96
55 | COc1ccc(Cl)cc1C(=O)Nn1c(C)nc2ccccc2c1=O | 10.3
56 | Cc1cccnc1NC(=O)CN1C(=O)c2ccccc2S1(=O)=O | 4.78
57 | Cc1sc2nc(SCC(N)=O)n(C)c(=O)c2c1C | 9.48
58 | CCCCn1c(N)c(N(CC(C)C)C(=O)CCCc2nc3ccccc3c(=O)[nH]2)c(=O)[nH]c1=O | 14.2
59 | CC(CNC(=O)C(C)C)NC(=O)C(C)C (stereo not shown) | 7.92
60 | Cc1cc(C)cc(C(=O)Nc2ccc(N3CCN(C(=O)c4ccco4)CC3)cc2)c1 | 5.79
61 | C=CCNC(=S)N1CCC(C(=O)c2ccc(Cl)cc2)CC1 | -37.8
62 | Cc1ccsc1/C=C1\SC(N2CC(C)OC(C)C2)=NC1=O (stereo not shown) | -3.26
63 | Cc1cc(C)c(C)c(S(=O)(=O)NCc2ccncc2)c1C | 3.88
64 | O=C(NC1CCCCC1)c1ccc(S(=O)(=O)NCc2cccnc2)cc1 | 5.88
65 | CC(CCN1CCN(c2ccc(F)cc2)CC1)c1ccccc1 (stereo not shown) | -64.3
66 | O=C1CCCN1c1ccc(C(=O)N(Cc2nnc(-c3ccc(Cl)cc3)o2)C2CC2)cc1 | -38.8

Row | Structure (SMILES) | hERG current change (%, negative = inhibition) at 10uM [%]
67 | Cc1c(C(=O)N2CCCCCC2)c(S(=O)(=O)Nc2ccc(F)cc2)c(C)n1C | 10.6
68 | COc1ccc(C(C(=O)NC2CCCC2)N(Cc2cccnc2)C(=O)c2snc(C(N)=O)c2N)cc1 (stereo not shown) | -20.3
69 | CC(=O)c1ccc(NC(=O)c2cnn3c(C(F)F)cc(C4CC4)nc23)cc1 | 11.1
70 | Cc1ccc(C(NC(=O)c2ccccc2)C(Cl)Cl)cc1 (stereo not shown) | 9.04
71 | Cc1c(/C(O)=C2/C(=O)C(=O)N(CCN(C)C)C2c2ccc(C(C)C)cc2)cnn1-c1ccccc1 (stereo not shown) | 5.44
72 | CC(C)(C)OC(=O)NCCCCCc1nnc(SCc2ccccc2)o1 | -9.97
73 | COc1cc(C(=O)Nc2ccc(N3CCN(C(=O)c4ccc(C)cc4)CC3)cc2)cc(OC)c1OC | -30.3
74 | NC(=O)NC1NC(=O)NC1=O (stereo not shown) | 11.9
75 | CCC(C(=O)N1CCCCCC1)n1nc(C)n2c(cc3occc32)c1=O (stereo not shown) | 11.8
76 | CS(=O)(=O)c1ccc(Cl)c(NC(=O)c2cc(=O)[nH]c3ccc(S(=O)(=O)N4CCOCC4)cc23)c1 | 0.653
77 | COc1ccc(OCC(=O)Nc2cccc(-c3nc4ccccc4o3)c2)cc1 | -0.773
78 | COC(=O)c1ccc(CNC(=O)c2ccc3c(c2)S(=O)(=O)N=C2CCCCCN23)cc1 | -10.5
79 | CCOC(=O)c1c(C)[nH]c(N=Nc2cccc(OC)c2)c1C | -14.6
80 | COc1ccc(CNC(=O)C2CCCN(C(=O)Nc3ccc(OC)cc3)C2)cc1 (stereo not shown) | -9.81
81 | COc1ccc(S(=O)(=O)N2CCOCC2)cc1NC(=O)Cc1sc(C)nc1-c1ccc(F)cc1 | 13.3
82 | COc1cc(/C=C/C(=O)c2ccc(F)cc2)cc(OC)c1OC | 9.37
83 | O=C(O)c1nc(Cl)c(Cl)c(N/N=C/c2ccccc2C(F)(F)F)c1Cl | 16.3
84 | Cc1nc(-c2ccc(NC(=O)C3CCCCC3)cc2)cs1 | -0.845
85 | Cn1ccnc1C(OC(=O)c1ccc(Cl)cc1)C(F)(F)F (stereo not shown) | -11.9
86 | O=C(NCCS(=O)(=O)N1CCCCC1)c1ccc2c(c1)OCO2 | -12.6
87 | CCN1CCN(c2cc(N3CCCC3)c([N+](=O)[O-])cc2F)CC1 | -19.8
88 | CC(C)=CCc1c(O)c(CC=C(C)C)c2occ(-c3ccc(O)cc3)c(=O)c2c1O | 4.77
